# From the supplement of paper PMC3334620
# Whole data set: some 33,000 sequences, median “E-score (-0.5 to 0.5)” near -0.054, cut for the highest 2% near 0.39. This is one part of the list.
# Biological target: Ylr278c (UniProt Q05854)
# Test: PBM E-score (8-mer binding enrichment) (E-score (-0.5 to 0.5)); higher = stronger / more preferred TF binding; most listed sequences are background and not binding sites
# Conditions: protein concentration: 200 nM; construct: GST-DNA-binding domain
# Summary of the method: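 Universal all-10-mer Agilent arrays, double-stranded by primer extension on fresh or once-stripped slides, were probed with about 100-200 nM GST-tagged yeast transcription factors made by PURExpress. Fluorescent anti-GST detected bound protein, and masliner normalised the scans. E-scores from the Universal PBM Analysis Suite were given to each ungapped eight-base word pooled with its reverse complement.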
row,Sequence,PBM E-score
1,ACCGATCT,0.0759
2,CCGCAATC,0.341
3,AGAGTCTC,-0.0765
4,CCTTAACA,-0.241
5,AGGGGATA,-0.246
6,ATTTAGTG,-0.0462
7,ATGATATA,-0.207
8,CTACTCCC,-0.0194
9,AGGTGTAT,-0.0664
10,ATAGCACA,-0.00117
11,ACGGTTAC,0.0356
12,CGTAAACG,0.0329
13,CTTGGGAC,-0.0458
14,CTACCGTA,-0.0269
15,ACCGTTTC,0.0963
16,AAGTCTGT,-0.245
17,GACCGCCC,0.105
18,CGGGTTGC,0.164
19,ATACGAAG,-0.0703
20,AAATAAAC,-0.027
21,CCGACAGC,0.31
22,CCCTTTAG,-0.366

row,Sequence,PBM E-score
1,CTACTAGA,-0.122
2,AAGACGAA,-0.147
3,TAATGCAA,-0.295
4,ATCTCTCC,0.101
5,CAAATATG,-0.0141
6,CTAACCAG,-0.232
7,GCCAACGC,-0.0457
8,GATCAATC,0.0547
9,AAACAGGA,-0.192
10,CAGCGCTG,0.112
11,CCGTAGGA,0.0462
12,ATGGCTGG,-0.209
13,ACATCCGT,0.162
14,CCGGGGTC,0.356
15,ATCAAGGC,-0.181
16,ACGCAACA,-0.0277
17,GATCACCA,-0.0494
18,CTCAGCAC,-0.201
19,CACCAGCA,-0.257
20,AAACGGCC,0.192
21,CGGGTTGA,0.0453
22,CCTGGAAA,-0.0612

row,Sequence,PBM E-score
1,GTGGAGAA,-0.0956
2,TACGCGTA,0.00948
3,CCTTCGCA,-0.284
4,GTTCCCTA,-0.177
5,ACTACGAA,-0.295
6,GCTACCTA,-0.0961
7,GTGATGCA,-0.087
8,TCTTGTCA,-0.116
9,CGATAATA,0.142
10,TAAATTTA,0.107
11,AACGTCCG,0.346
12,GATCACTA,0.0608
13,CGTCCGTC,0.208
14,AGTCCGCA,0.372
15,GAGCGGTA,0.00737
16,CTTCGTCC,-0.0559
17,ACAAAAGA,0.00318
18,ATGGGTAC,-0.356
19,TAAAGCGA,0.148
20,AACCATCT,-0.00923
21,AGTTTAGG,-0.236
22,CACGATGC,-0.161

row,Sequence,PBM E-score
1,CGTTCGAA,-0.0287
2,AATGCAGA,-0.106
3,CCCCTCGC,-0.239
4,GGACTACA,0.0676
5,GCTGATAA,0.0457
6,CGGAAAAC,0.373
7,CATAGATC,-0.219
8,TGGTGTAA,-0.151
9,CACTCCCA,-0.106
10,AAACTACG,0.128
11,AACTAAAA,0.0312
12,AACGTATA,-0.291
13,CGCATGAG,-0.229
14,ATTACAAT,-0.00014
15,ATTCGTCG,0.11
16,CCTGAGCG,-0.105
17,TACGTCAA,-0.246
18,ACCATTAA,0.00806
19,ATTCCTTA,-0.136
20,AACCCAGA,-0.173
